The full ranking holds about 33,000 sequences; the median of “E-score (-0.5 to 0.5)” is about -0.054, and the highest 2% start at about 0.35. The list shows a part of the results.
Molecular target: T1, Stb5 (UniProt P38699)
T1 sequence: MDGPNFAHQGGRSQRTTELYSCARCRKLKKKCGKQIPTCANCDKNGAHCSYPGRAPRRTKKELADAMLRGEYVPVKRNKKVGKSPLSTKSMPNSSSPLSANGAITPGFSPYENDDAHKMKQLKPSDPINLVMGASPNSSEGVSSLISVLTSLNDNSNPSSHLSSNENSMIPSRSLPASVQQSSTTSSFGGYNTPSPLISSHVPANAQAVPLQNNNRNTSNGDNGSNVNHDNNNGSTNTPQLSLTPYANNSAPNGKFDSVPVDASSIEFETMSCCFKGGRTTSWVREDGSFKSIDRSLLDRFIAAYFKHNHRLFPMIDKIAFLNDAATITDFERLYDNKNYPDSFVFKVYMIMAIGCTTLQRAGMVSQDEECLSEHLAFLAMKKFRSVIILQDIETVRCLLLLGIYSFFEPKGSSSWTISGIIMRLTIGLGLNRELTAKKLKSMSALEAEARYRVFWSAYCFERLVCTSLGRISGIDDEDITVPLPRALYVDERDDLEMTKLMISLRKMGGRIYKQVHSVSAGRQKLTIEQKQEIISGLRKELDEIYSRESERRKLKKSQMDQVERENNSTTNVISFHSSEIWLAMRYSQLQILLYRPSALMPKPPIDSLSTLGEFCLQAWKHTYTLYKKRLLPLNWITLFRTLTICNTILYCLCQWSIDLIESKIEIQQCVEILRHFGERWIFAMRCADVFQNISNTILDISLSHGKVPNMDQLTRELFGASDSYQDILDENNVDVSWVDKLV
Assay: PBM E-score (8-mer binding enrichment) (E-score (-0.5 to 0.5)); higher = stronger / more preferred TF binding; most listed sequences are background and not binding sites
Conditions: protein concentration: 200 nM; construct: GST-full length
Method in brief: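 E-scores (a modified Wilcoxon-Mann-Whitney statistic) were assigned by the Universal PBM Analysis Suite to every ungapped eight-base word pooled with its reverse complement. The input came from universal all-10-mer Agilent arrays made double-stranded by primer extension and probed with GST-tagged yeast transcription factors at about 100-200 nM. Fluorescent anti-GST detected bound protein, and masliner normalised the scans.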

First: ATCCCTTG
Second: GTAGGGCA
The “PBM E-score” value of the first is higher: 0.0142 for the first, -0.219 for the second.

Compared with CATGAGAG, ACCCTCGC is higher in “PBM E-score” value: -0.195 for the first, -0.0357 for the second.

Compared with ATACAATA, GTGGATCA is lower in “PBM E-score” value: 0.121 for the first, -0.185 for the second.

First: ACACCTCC
Second: AGGCGTTG
The “PBM E-score” value of the first is higher: 0.0978 for the first, -0.11 for the second.

Compared with CTGATGAC, ACCAATCT is higher in “PBM E-score” value: -0.108 for the first, -0.094 for the second.

Going from GCGGATGA to AAGCAACT, the “PBM E-score” value falls from 0.165 to -0.0296.

First: CTATCGCC
Second: AACCTCCC
The “PBM E-score” value of the first is higher: 0.135 for the first, -0.0946 for the second.

Compared with GGAATTTA, CAGATTCC is lower in “PBM E-score” value: 0.196 for the first, -0.00417 for the second.

Going from CCGTTAGC to CGCTAATC, the “PBM E-score” value falls from 0.217 to -0.0307.

First: AAAAAACG
Second: CGCTTCAG
The “PBM E-score” value of the first is higher: -0.00301 for the first, -0.139 for the second.

Compared with GCACCTCA, CATCTTAA is higher in “PBM E-score” value: -0.199 for the first, -0.0664 for the second.

Going from AAATGACG to CGAGGTAG, the “PBM E-score” value falls from 0.0417 to -0.00864.

Going from CTCAACGC to AACCTGAG, the “PBM E-score” value falls from -0.0495 to -0.0916.

Compared with AGTGCATC, ACAACCCA is higher in “PBM E-score” value: -0.162 for the first, -0.072 for the second.

Going from AAGGCGGA to GTAGTTGA, the “PBM E-score” value falls from 0.292 to -0.129.

First: CGTCGACG
Second: AAGGGAGG
The “PBM E-score” value of the first is higher: 0.17 for the first, -0.0939 for the second.

Going from ACGTTATA to CCAGGATA, the “PBM E-score” value falls from 0.0232 to -0.244.

First: CATGCGGA
Second: ACACACAG
The “PBM E-score” value of the first is higher: 0.167 for the first, -0.0846 for the second.

Going from AGTGCACC to GTCTACTA, the “PBM E-score” value falls from -0.129 to -0.174.

First: ACAACGGC
Second: ATGATGAG
The “PBM E-score” value of the first is higher: 0.141 for the first, -0.202 for the second.

Compared with CAGCACGC, CGCACCCA is higher in “PBM E-score” value: -0.192 for the first, -0.00867 for the second.

First: ACGGGGTC
Second: ATTCAGCC
The “PBM E-score” value of the first is higher: 0.362 for the first, -0.129 for the second.

Compared with ATCCCACA, ACGGCGCA is higher in “PBM E-score” value: -0.215 for the first, 0.177 for the second.

Compared with GGTGTAAC, CGAAAGAC is lower in “PBM E-score” value: 0.381 for the first, -0.00706 for the second.

First: ACATGAGG
Second: CATTAGTC
The “PBM E-score” value of the first is lower: -0.0362 for the first, 0.0928 for the second.

Compared with ACCGTTGG, CTTTTACA is lower in “PBM E-score” value: 0.179 for the first, 0.103 for the second.

Going from GCAGGCCA to AGGGTCTA, the “PBM E-score” value falls from -0.0621 to -0.0622.

Going from GAATATGA to CCCAAACG, the “PBM E-score” value falls from -0.0764 to -0.0918.

First: GAAAGAGC
Second: CCCACGGC
The “PBM E-score” value of the first is lower: -0.135 for the first, 0.176 for the second.

First: ATGCACGG
Second: AAGGTAGG
The “PBM E-score” value of the first is higher: 0.178 for the first, -0.0169 for the second.

First: AAACACTG
Second: AACGGTCT
The “PBM E-score” value of the first is lower: -0.241 for the first, 0.213 for the second.

Compared with TGGTGAAA, GGACGCCC is higher in “PBM E-score” value: 0.0708 for the first, 0.0973 for the second.

Compared with CAGGTCAA, CGATCATA is higher in “PBM E-score” value: -0.121 for the first, -0.052 for the second.

Going from GAGGAAAA to CCAGGTCG, the “PBM E-score” value falls from -0.0362 to -0.238.

Going from TAAAACCA to ACGCGCTA, the “PBM E-score” value rises from -0.106 to -0.08.

Going from ATCTGCGC to GCATGCAA, the “PBM E-score” value rises from 0.0281 to 0.0662.

First: CAGGCAAG
Second: CTTCAGTA
The “PBM E-score” value of the first is lower: -0.156 for the first, -0.125 for the second.

Compared with CTGCAGCA, CGCCGCCC is higher in “PBM E-score” value: -0.157 for the first, 0.352 for the second.

First: ACGACACT
Second: AGCCCATC
The “PBM E-score” value of the first is higher: -0.0454 for the first, -0.171 for the second.

Going from ACAGTCGC to GGGCAGCA, the “PBM E-score” value falls from -0.126 to -0.192.

Compared with CCGACCAA, AGGCTCGA is lower in “PBM E-score” value: 0.228 for the first, -0.165 for the second.

First: CCACTCTC
Second: CTGTCGAC
The “PBM E-score” value of the first is lower: -0.0624 for the first, -0.0459 for the second.

First: GTTAATAA
Second: GCAAGACA
The “PBM E-score” value of the first is higher: 0.138 for the first, 0.0211 for the second.

Source: the supplement of paper PMC3334620
